# Assay results published in PubChem BioAssay AID1508624 (National Center for Advancing Translational Sciences (NCATS), 2021).
# Out of some 48,000 compounds screened, about 120 (0.25%) were called active. Inconclusive results (about 4%) are left out. Calls follow the shape of the dose curve; as a rule, active = well fitted activation curve with a large enough effect; inconclusive = small, poorly fitted or top-dose-only effect, or another doubt; inactive = no such curve, though single readings can be large or run the other way. This is one part of the list.
# Experiment: Primary qHTS for Identification of Small Molecule Activators of Huntingtin-Antisense Promoter Activity; also: nearly all actives have a fitted effect of over 55% in size
# Details: HEK293 HTT-AS promoter firefly luciferase reporter, 24 h; series mostly up to 57.5 µM; activity change, positive = activation: at the top concentration
# Summary of the method: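 Firefly luciferase signal from promoter-reporter HEK293 cells was scaled between vehicle (0%) and zero RLU (-100%). Compounds were tested at final concentrations of up to 57.5 uM over 24 h at 37 degrees C. PTC124 at 50 uM final served as control inhibitor.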
row,SMILES,"activity change, positive = activation"
1,COC(=O)c1ccc(NC(=O)c2cc(=O)c3ccc(C)cc3o2)cc1,"inactive: 5.7% [at 11.5 µM, percent change from vehicle, -100% = no light]"
2,C=C1C[C@@]2(O)O[C@@]3(C[C@H]2C(C)C)[C@H](C)CC[C@H]13,inactive: -5.93%
3,CN(C(=O)C1=CC(c2ccc3c(c2)OCO3)=NS(=O)(=O)N1C)c1ccccc1,inactive: -12.4%
4,CC(C)COc1ccc(C(=O)N(Cc2ccc(N(C)C)cc2)Cc2ccco2)cc1,inactive: -30.4%
5,CCc1ccc(NC(=O)CCS(=O)(=O)c2ccc3c(c2)n(C)c(=O)c(=O)n3C)cc1,inactive: -16.7%
6,Cc1ccc(/C=C/c2nc3ccccc3[nH]2)cc1,inactive: -71.5%
7,CC1CCCCN1c1nnc(NC(=O)Nc2ccccc2F)s1 (centres undefined),inactive: -16.9%
8,CCC(Cn1nnc2ccccc2c1=O)NC(=O)Nc1ccc(C)c(C)c1 (centres undefined),inactive: -4.6%
9,COCCCNC(=O)CSc1nc2cc(OC)c(OC)cc2c2nc(-c3ccccc3)nn12,inactive: 1.11%
10,CS(=O)(=O)CCC(C(=O)Nc1cccc(C(F)(F)F)c1)N1Cc2ccccc2C1=O (centres undefined),inactive: -14%
11,Cc1ccc(OCc2nc3ccccc3n2CCOc2ccc(Cl)cc2)cc1,inactive: -24.4%
12,CC1CCCN(C(=O)c2cc3c(Cl)nc4ccccc4c3s2)C1 (centres undefined),inactive: 15.6%
13,O=C(c1ccco1)c1cn(CCOc2ccc(F)cc2)c2ccccc12,inactive: -11.1%
14,Cc1ccc(-c2nc(SCC(=O)NCc3ccco3)c3c(=O)n(C)c(=O)n(C)c3n2)cc1,inactive: -1.8%
15,CC(C)c1ccc(NC(=O)Cn2c(=O)n(CCc3ccccc3)c(=O)c3ccccc32)cc1,inactive: -10.7%
16,CCc1cccc(CC)c1NC(=O)CN1C(=O)C(=O)c2ccccc21,inactive: -14.8%
17,Cc1ccc(Nc2nnc(-c3ccc(C)c(S(=O)(=O)NCc4nc5ccccc5[nH]4)c3)c3ccccc23)cc1,"inactive: 2.2% [at 11.5 µM, percent change from vehicle, -100% = no light]"
18,Cc1c(Cn2ccnc2)c2ccccc2n1CCC(=O)O,inactive: 5.29%
19,Cc1ccccc1OCC(O)Cn1c(=N)n(CCN2CCCCC2)c2ccccc21 (centres undefined),inactive: -29%
20,Cc1ccc(-c2nnc(Nc3cccc(O)c3)c3ccccc23)cc1S(=O)(=O)N1CCN(C)CC1,"inactive: 11.1% [at 11.5 µM, percent change from vehicle, -100% = no light]"
21,Cc1ccc(Cn2c(=O)n(CCCC(=O)NCc3ccccc3Cl)c(=O)c3ccccc32)cc1,inactive: -5.86%
22,COc1ccc(OC)c(NC(=O)c2c(NCc3cccs3)sc3c2CCCC3)c1,inactive: -17%
23,COC(=O)c1cnc(N2CCN(c3ccccc3F)CC2)c2ccccc12,inactive: 1.78%
24,Cc1ccc(NC(=O)C2CCN(c3nc4ccccc4[nH]3)CC2)c(C)c1,inactive: -7.74%

row,SMILES,"activity change, positive = activation"
1,COCCN1C(=O)c2[nH]nc(-c3cc(C)ccc3O)c2C1c1ccc(C(C)C)cc1 (centres undefined),inactive: -13.7%
2,CCc1ccccc1NC(=O)c1cc(S(=O)(=O)N2CCCC2)cn1C,inactive: -6.37%
3,Cc1cccc(N2CCN(C(=O)CCc3c(C)nc4ncnn4c3C)CC2)c1C,inactive: -23.6%
4,COc1ccccc1NC(=O)NCCN1CCN(c2cccc(Cl)c2)CC1,inactive: -8.97%
5,CC(C)c1cccc(C(C)C)c1NC1=NS(=O)(=O)c2ccccc21,inactive: -12.4%
6,Cc1ccc(CNS(=O)(=O)c2cc3c(cc2C)NC(=O)CO3)cc1,inactive: -21.5%
7,COc1ccc(OC)c(NC(=O)CN2C(=O)COc3ccc(S(=O)(=O)NC4CCCC4)cc32)c1,inactive: -15.8%
8,CN(CC(=O)Nc1cccc(C(F)(F)F)c1)S(=O)(=O)c1cccs1,inactive: -17%
9,O=C(Cn1c(-c2cccs2)cc2ccccc21)NCCc1ccc(Cl)cc1,inactive: -23.3%
10,COC(=O)C(C)Sc1ncnc2c1c(-c1ccccc1)cn2-c1ccc(F)cc1 (centres undefined),inactive: -19.3%
11,Cc1cccc(C)c1-n1ncc(C(=O)N2CCN(c3ccccc3)CC2)c1C1CCN(C(=O)OC(C)(C)C)CC1,inactive: -28.7%
12,CCOc1ccccc1NC(=O)c1cc2c(=O)oc3ccccc3c2s1,inactive: 0.43%
13,O=C(c1ccc(CSc2nc3ccncc3n2Cc2cccc(F)c2)cc1)N1CCCCCC1,inactive: -19.8%
14,Cc1cncn1CCc1nc2c3ccccc3nc(SCC(=O)Nc3cccc(Cl)c3)n2n1,inactive: -92.5%
15,CCCCN(CC)CCNC(=O)Cn1cc2c(n1)-c1c(oc(C(=O)N3CCCC3)c1C)CC2,inactive: -13.5%
16,CN(C(=O)CSc1cn(CC(=O)N2CCOCC2)c2ccccc12)c1ccccc1,inactive: 2.61%
17,CC(=O)N1CCCc2cc(S(=O)(=O)N3CCC(C(=O)NCc4cccc(C)c4)CC3)ccc21,inactive: -20%
18,COc1cccc(Cn2c(=O)n(Cc3ccco3)c(=O)c3oc4ccccc4c32)c1,inactive: -12%
19,CCCOc1cccc(C(=O)N(Cc2ccc(C)o2)C2CCS(=O)(=O)C2)c1 (centres undefined),inactive: -13.1%
20,COCCNc1sc(S(=O)(=O)c2ccc(C)cc2)nc1S(=O)(=O)c1ccc(C)cc1,inactive: -4.68%
21,CC(=O)Nc1ccc(NC(=O)CSc2nccn2C)cc1,inactive: -0.569%
22,N#Cc1ccc(C(c2ccc(C#N)cc2)n2cncn2)cc1,inactive: -21.6%
23,CCCN(C(=O)c1noc2c1COc1ccc(C)cc1-2)c1ccc(Cl)c(Cl)c1,inactive: -17.8%
24,CCOC(=O)c1cc2c(=O)n3ccccc3nc2n(CC(C)C)c1=NC(=O)c1c(-c2c(F)cccc2Cl)noc1C,inactive: 5.34%

row,SMILES,"activity change, positive = activation"
1,COC(=O)c1ccccc1NC(=O)c1c(NC(=O)c2ccco2)sc2c1CCC(C(C)(C)C)C2 (centres undefined),inactive: -9.2%
2,COc1cc(NS(=O)(=O)c2ccc3[nH]c4c(c3c2)CCCCCC4)cc(OC)c1,inactive: -27.7%
3,Cc1ccc(NC(=O)CC(C)S(=O)(=O)c2ccc3c(c2)NC(=O)CO3)cc1Cl (centres undefined),inactive: -16.1%
4,Cc1nc2nc(SCC(=O)NCc3ccccc3Cl)nn2c(C)c1Cc1ccccc1,inactive: -2.61%
5,CCc1nc(-c2cc(S(=O)(=O)N3CCN(c4ccccc4OC)CC3)ccc2OC)no1,inactive: -11.9%
6,CCOC(=O)Cn1c(=O)c2c(nc3n2CCN3c2ccc(CC)cc2)n(C)c1=O,inactive: -12.3%
7,COc1cc(Cl)c(C)cc1Nc1ncnc2c1nc1n2CCCC1,inactive: 7.94%
8,COc1ccc(Cl)cc1NC(=O)CN1C(=O)COc2ccc(S(=O)(=O)NC3CCCC3)cc21,inactive: -16.5%
9,Cc1ccc(-c2nnc(Nc3ccc(O)cc3)c3ccccc23)cc1S(=O)(=O)N1CCOCC1,inactive: -48%
10,CCOC(=O)c1cc(-c2ccccc2)n(-c2cccc(C(=O)Nc3ccc(OCC)cc3)c2)c1C,inactive: -29.3%
11,COc1cccc(NS(=O)(=O)c2ccc(-c3cc(C)no3)s2)c1,inactive: 0%
12,CCn1c(CNC(=O)C23CC4CC(CC(C4)C2)C3)nnc1SCC(=O)Nc1ccccc1,inactive: -16.3%
13,Cc1ccc(C)c(OCCn2cc(C(=O)c3ccco3)c3ccccc32)c1,inactive: -11.7%
14,COc1ccc(-c2nc(CNS(=O)(=O)c3ccccc3)cs2)cc1,inactive: -20.3%
15,COc1cccc(CNC(=O)c2cc3c(s2)-c2c(C)cccc2OC3)c1,inactive: -10%
16,COc1c2occc2cc2ccc(=O)oc12,inactive
17,O=C(Oc1ccc(F)cc1)c1nc(SCc2ccccc2F)ncc1Cl,inactive: -7.14%
18,Cc1oc2ncn(C)c(=O)c2c1C(=O)N1CCN(c2ccccc2)CC1,inactive: -0.365%
19,COc1ccccc1C(=O)NC1(C(F)(F)F)C(=O)Nc2c1c(=O)[nH]c(=O)n2-c1ccccc1 (centres undefined),inactive: -10.3%
20,Cn1c(=O)c2c([nH]c(=O)n2Cc2ccc(Cl)cc2Cl)n(C)c1=O,inactive: 0.737%
21,Cc1ccc2c(c1)-c1nc(-c3ccc4c(c3)NC(=O)CO4)cc(-c3ccc(Cl)cc3)c1CO2,inactive: 0.847%
22,COc1ccc2c(OCc3nnc4ccc(-c5ccccc5)nn34)ccnc2c1,inactive: 1.62%
23,CC1CCCN(CCCNC(=O)c2cn(C)c3ccc(S(=O)(=O)N(C)C4CCCCC4)cc3c2=O)C1 (centres undefined),inactive: -5.29%
24,Cc1ccc(NS(=O)(=O)c2ccc3nc(-c4ccccc4)[nH]c3c2)c(Cl)c1,inactive: -31.8%

row,SMILES,"activity change, positive = activation"
1,COc1ccccc1CNC(=O)c1ccc2c(c1)N(Cc1cccc(Cl)c1)C(=O)c1ccccc1S2(=O)=O,inactive: -14.5%
2,COc1ccc(Cn2c(C(=O)O)c(CNCCc3cccs3)c3ccc(C)cc32)cc1,inactive: -34.2%
3,Cc1ccc(Cn2c(C(=O)O)c(CNC3CCCCCC3)c3ccc(C)cc32)cc1,inactive: -12.8%
4,CC(=O)c1ccc(NC(=O)Cn2c(=O)c3cccn3c3ccccc32)cc1,inactive: -23.7%
5,Cc1ccc(NC(=O)Cn2c(=O)n(CCC(=O)N3CCc4ccccc4C3)c(=O)c3ccccc32)cc1,inactive: -3.12%
6,Cc1oc2ncn(CC(C)C)c(=O)c2c1C(=O)Nc1cc(F)ccc1F,inactive: -2.03%
7,CC(C)(C)C(=O)NCCc1nc2ccccc2n1CCCCOc1ccc(Cl)cc1,inactive: -26.2%
8,COc1ccc(-n2nc3c(N4CCCC(C(=O)NCc5cccc(F)c5)C4)nnc(C)c3c2C)cc1 (centres undefined),inactive: -23.4%
9,O=C(NN1CCCC1)NS(=O)(=O)c1ccc(Cl)cc1,inactive: -3.49%
10,CCOc1ccc(CNC(=O)CSc2nnc(C)c3c(C)n(-c4ccccc4)nc23)cc1,inactive: -21.9%
11,Cc1ccccc1CCNC(=O)c1ccc2c(c1)c(C)c(C)n2Cc1ccccc1,inactive: -23.6%
12,CC(C)CN(CCCNC(=O)CN1C(=O)CSc2ccc(S(=O)(=O)N3CCOCC3)cc21)CC(C)C,inactive: -2.97%
13,CN1CCN(C2=Nc3ccccc3Oc3ccc(Cl)cc32)CC1,inactive: -18%
14,CCc1ccccc1N1C(=O)N(Cc2ccccc2C)c2ccccc2S1(=O)=O,inactive: -38.1%
15,COc1ccc(S(=O)(=O)n2ccnc2)cc1C(C)(C)C,inactive: -0.954%
16,COc1ccc(OC)c2sc(N3CCN(C(=O)C4CC4)CC3)nc12,inactive: -6.18%
17,CCOc1ccc(NC(=O)CC2C(=O)OCCN2CC)cc1 (centres undefined),inactive: 11.4%
18,COc1ccccc1NC(=O)c1cnc(SCC(=O)N2CCCc3ccccc32)n(C)c1=O,inactive: -0.547%
19,CC1=C(C(=O)N2CCN(c3cccc(C(F)(F)F)c3)CC2)C2(CCCCC2)OC1=O,inactive: -22.1%
20,CCOC(=O)c1ccccc1NC(=O)c1cc2c(=O)oc3ccc(C)cc3c2s1,inactive: -11%
21,COc1ccccc1CNC(=O)CN1C(=O)CSc2ccc(S(=O)(=O)N3CCCCC3)cc21,inactive: -26.2%
22,COC(=O)c1c(Oc2ccc(C(C)=O)cc2)nnc(-c2ccccc2)c1-c1ccccc1,inactive: -27.9%
